In PubChem BioAssay AID894 (National Center for Advancing Translational Sciences (NCATS), 2007):
Where “and” joins values, the source holds several entries; their conditions need not be identical. Equal values may be shown once. Out of some 150,000 compounds screened, about 6,500 (4.3%) were called active. Inconclusive means that the source gave no clear call. Such entries were picked first, then a sample of the others. The call rests on the fitted dose curve; in most records, active means well fitted inhibition curve with a large enough effect (not every such curve was filed as active); inconclusive means small, poorly fitted or top-dose-only effect, or another doubt; inactive means no such curve, though single readings can be large or run the other way. Potencies beside an inconclusive call are fits to weak or partial responses and may not hold up. More than one record can exist for a structure, and the calls need not agree.

These molecules were tested against 15-hydroxyprostaglandin dehydrogenase [NAD(+)] (Homo sapiens) (UniProt P15428) (assay: qHTS Assay for Inhibitors of HPGD (15-Hydroxyprostaglandin Dehydrogenase)). Conditions: purified HPGD, NADH fluorescence kinetic, PGE2 substrate; activity change, negative = inhibition: stronger effect = lower value.
Sequence of UniProt P15428 (P15428 whole entry, looked up): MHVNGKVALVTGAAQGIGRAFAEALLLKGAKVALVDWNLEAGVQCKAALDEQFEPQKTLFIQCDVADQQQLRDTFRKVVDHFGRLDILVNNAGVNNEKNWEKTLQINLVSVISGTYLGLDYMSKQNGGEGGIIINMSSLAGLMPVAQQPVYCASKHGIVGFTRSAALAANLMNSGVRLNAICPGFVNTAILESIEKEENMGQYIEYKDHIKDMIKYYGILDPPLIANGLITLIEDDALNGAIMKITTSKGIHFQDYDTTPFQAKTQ
In short: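 20 nM HPGD preincubated 15 min at room temperature with compound in 50 mM Tris-HCl pH 8, 0.01% Tween 20. Started with 1 mM NAD+ and 30 uM prostaglandin E2; NADH fluorescence (360/450 nm) read 5 times over 30-s intervals, last minus first.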
On the % scale 0 is the no-effect control and ±100 the full control effect; potency means the concentration at half of the fitted maximal effect; tags describe the fitted curve by direction and shape.

SMILES	Potency	activity change, negative = inhibition
Clc1ccc(C2CC3CCC2N3)cn1 (stereo not given)	inconclusive: 35.5 µM [inhibitor, partial curve]	
Cc1csc(NC(=O)C2CCCN(S(=O)(=O)c3ccc4c(c3)oc(=O)n4C)C2)n1 (stereo not given)	active: 8.91 µM	
COC(=O)/C(C)=C\CC12OC(C)(C)C3CC(C=C4C(=O)c5c(OC)c6c(c(CC=C(C)C)c5OC431)OC(C)(CCC=C(C)C)C=C6)C2=O (stereo not given)		inactive: -21.4%
Nc1ccc2c(c1)Cc1ccccc1-2	inconclusive: 44.7 µM [inhibitor, single point]	
CC(C)NC(=O)N1CCCC2(CCN(C(=O)Oc3ccccc3)CC2)C1		inactive: -14.1%
COc1cc2c(cc1OC)-c1c(OC)c(OC)c(OC)c3ccnc(c13)C2=O	inconclusive: 12.6 µM [inhibitor, partial curve]	
CC(Oc1ccc(Cl)cc1Cl)C(=O)Nc1ccc(S(=O)(=O)Nc2cnc3ccccc3n2)cc1 (stereo not given)	inconclusive: 17.8 µM [inhibitor, partial curve]	
COc1ccc(-c2oc3cc(OC)ccc3c(=O)c2O)cc1	inconclusive: 35.5 µM [inhibitor, partial curve]	
CCOc1cc(C=C2C(=O)NC(=O)NC2=O)ccc1OS(=O)(=O)c1ccccc1	active: 12.6 µM	
CCCCn1c(NC(=O)c2ccco2)c(C(=O)OCC)c2nc3ccccc3nc21	inconclusive: 20 µM [inhibitor, partial curve]	
Cn1c(=O)c(Oc2ccc(F)cc2)c(O)c2ccccc21	inconclusive: 25.1 µM [inhibitor, single point]	
CC1=CC(=O)c2c(O)cccc2C1=O	active: 25.1 µM	
Cc1[nH]n(-c2ccccc2)c(=O)c1C(c1ccc([N+](=O)[O-])cc1)c1c(C)[nH]n(-c2ccccc2)c1=O	active: 28.2 µM	
Cc1cccc(N2CCc3c2nc2ccccc2c3N)c1	inconclusive: 28.2 µM [inhibitor, partial curve] and inconclusive: 35.5 µM [inhibitor, partial curve]	
COc1cc(/C=C2\C(=O)NC(=O)N(c3ccccc3)C2=O)cc(OC)c1OC	inconclusive: 25.1 µM [inhibitor, single point]	
Cc1cccnc1NC1=NCC(C)S1 (stereo not given)		inactive: -17.2%
Oc1cc(Cl)cc(Cl)c1		inactive: -8.53%
COc1cc(/C=C/[N+](=O)[O-])ccc1O		inactive: -24.3%
O=C(O)c1cc[c]([Hg][S]c2ncnc3nc[nH]c23)cc1	active: 0.224 µM	
COc1ccc(OC)c2c1CCC1NCCOC21 (stereo not given)		inactive: -1.77%
c1cc2c(cc1C1OC[C@@H]3C(c4ccc5c(c4)OCO5)OCC13)OCO2 (stereo not given in full)	inconclusive: 35.5 µM [inhibitor, single point]	
CCCCn1c(-c2ccoc2C)n[nH]c1=S	inconclusive: 17.8 µM [inhibitor, partial curve]	
O=[N+]([O-])c1ccc(Nc2ccccc2)cc1	inconclusive: 31.6 µM [inhibitor, partial curve]	

SMILES	Potency	activity change, negative = inhibition
O=C1NC(=O)N(Cc2ccco2)C(=O)/C1=C/c1ccc(-c2cccc([N+](=O)[O-])c2)o1	active: 5.01 µM	
CCC(C)n1c(O)c(C=Nc2cccc(C(F)(F)F)c2)c(=O)[nH]c1=S (stereo not given)	inconclusive: 39.8 µM [inhibitor, single point]	
O=[N+]([O-])c1cc(O)c(O)c([N+](=O)[O-])c1	inconclusive: 20 µM [inhibitor, partial curve, poor fit]	
O=Cc1cn(Cc2cccc([N+](=O)[O-])c2)c2ccccc12		inactive: -17.3%
CCC(C)NC(=O)c1c(N)n(Cc2ccc3c(c2)OCO3)c2nc3ccccc3nc12 (stereo not given)	inconclusive: 3.98 µM [inhibitor, partial curve]	
CC(C)OCCCNC(=O)c1c(N)n(CC2CCCO2)c2nc3ccccc3nc12 (stereo not given)	inconclusive: 14.1 µM [inhibitor, partial curve]	
O=[N+]([O-])O[C@H]1CO[C@H]2[C@H]1OC[C@@H]2O[N+](=O)[O-]		inactive: -4.69%
CCN(CC)S(=O)(=O)c1ccc(NN=C(C#N)C#N)cc1	active: 14.1 µM	
CCOC(=O)C1=C(N)OC2=C(C(=O)CCC2)C12C(=O)N(CC(N)=O)c1ccccc12 (stereo not given)		inactive: -6.96%
N#CC1=C(N)Oc2c(c(=O)oc3ccccc23)C1c1ccc(OC(=O)N2CCOCC2)cc1 (stereo not given)	inconclusive: 22.4 µM [inhibitor, partial curve]	
O=C(c1ccc2c(c1)ncn2C1CCCCC1)N1CCC2(CC1)OCCO2	active: 7.94 µM	
NCCc1ccc(S(=O)(=O)O)cc1[N+](=O)[O-]		inactive: -5.49%
CCOC(=O)c1c(-c2ccc(OC)cc2)oc2ccc(OC(=O)N(C)C)cc12	inconclusive: 31.6 µM [inhibitor, partial curve]	
CCN(CCCNS(=O)(=O)c1ccc2c(c1)oc(=O)n2C)c1cccc(C)c1	inconclusive: 39.8 µM [inhibitor, partial curve]	
COc1ccc(C(=O)Nc2ccccc2C(=O)NC(C(=O)NCc2ccco2)C(C)C)cc1 (stereo not given)	inconclusive: 20 µM [inhibitor, single point]	
Cc1ccc(-c2nc3ccc(C)cn3c2CC(=O)N(C)C)cc1	inconclusive: 31.6 µM [inhibitor, partial curve]	
Cn1cc(C(=O)N2CCC3(CC2)OCCO3)c2c3ccccc3n(C)c2c1=O	inconclusive: 25.1 µM [inhibitor, partial curve]	
CCCCn1c(O)c(C(C)=NC(C)c2ccccc2)c(=O)[nH]c1=O (stereo not given)	inconclusive: 31.6 µM [inhibitor, single point]	
CCC12C=CCN3CCC4(c5ccc(OC)cc5N(C)C4[C@@](O)(C(=O)OC)C1OC(C)=O)C32 (stereo not given in full)		inactive: -7.44%
CCCCN1C(=O)/C(=C\c2ccco2)C(=O)N(CCc2ccccc2)C1=O	active: 31.6 µM	
CC(=O)Nc1ccccc1C(=O)OCC(=O)c1ccc2ccccc2c1	inconclusive: 14.1 µM [inhibitor, partial curve]	
Cc1ccc(NC(=[OH+])c2cc3ccccc3cc2O)c(C)c1.Cc1ccc(NC(=[OH+])c2cc3ccccc3cc2O)c(C)c1.[Ni]	active: 1.78 µM	
Cc1ccc(N2C(=O)/C(=C/c3ccc(CN(CCC#N)S(C)(=O)=O)o3)C(=O)NC2=S)cc1	active: 22.4 µM	

SMILES	Potency	activity change, negative = inhibition
NC(=O)CSP(=O)(c1ccccc1)c1ccccc1		inactive: -3.62%
O=C(Oc1ccccc1)c1ccccc1O	inconclusive: 12.6 µM [inhibitor, partial curve]	
CCC(=Nc1cc(OC)ccc1OC)c1c(O)[nH]c(=O)[nH]c1=O	active: 25.1 µM	
O=c1[nH]c(=O)n(CCc2ccc(F)cc2)c(O)c1C=NCCCN1CCOCC1		inactive: -7.84%
CCNC(=O)[C@H]1O[C@@H](n2cnc3c(N)ncnc32)[C@H](O)[C@H]1O		inactive: -13.5%
CC(C)c1ccc(N2C(=O)NC(=O)/C(=C/c3cnc(-c4ccccc4)nc3)C2=O)cc1	active: 12.6 µM	
C=C(C)[C@H]1CN[C@H](C(=O)O)[C@H]1CC(=O)O	active: 15.8 µM	inactive: -10.5%
CCOc1ccccc1N1C(=O)NC(=O)/C(=C/c2ccc3c4c(cccc24)CC3)C1=O	inconclusive: 12.6 µM [inhibitor, partial curve]	
COc1ccc(C(=O)Nc2sc3c(c2C(=O)O)CC(C)(C)OC3)cc1	inconclusive: 22.4 µM [inhibitor, partial curve]	
Nc1ccccc1C(=O)OCC(=O)N1CCc2ccccc21	inconclusive: 28.2 µM [inhibitor, partial curve]	
Nc1c(C(=O)NCCc2ccccc2)c2nc3ccccc3nc2n1CCN1CCOCC1	inconclusive: 31.6 µM [inhibitor, partial curve]	
O=[N+]([O-])c1ccc(Sc2nc3ccccc3o2)c([N+](=O)[O-])c1	active: 31.6 µM	
CCCCCn1c(N)c(C(=O)NCc2cccs2)c2nc3ccccc3nc21	inconclusive: 15.8 µM [inhibitor, partial curve]	
NC1=NC([S][Hg][c]2ccc(N)cc2)c2ncn([C@@H]3O[C@H](CO)[C@@H](O)[C@@H]3O)c2N1 (stereo not given in full)	active: 0.0501 µM	
Nc1c(C(=O)OC2CCCCC2)c2nc3ccccc3nc2n1CC1CCCO1 (stereo not given)	inconclusive: 25.1 µM [inhibitor, partial curve]	
O=C(c1cccn2c(=O)c3cc(Br)ccc3nc12)N1CCC2(CC1)OCCO2	inconclusive: 28.2 µM [inhibitor, partial curve]	
Cc1ccc(-n2nc(C)cc2NC(=O)COc2cc(C)cc3oc(=O)c4c(c23)CCC4)cc1	inconclusive: 28.2 µM [inhibitor, partial curve]	
C=CCN1C(=O)NC(=O)/C(=C/c2ccc(OC)c(CSc3ccccn3)c2)C1=O	active: 28.2 µM	
C[N+]1=Cc2cc3c(cc2CC1)OCO3	inconclusive: 28.2 µM [inhibitor, partial curve]	
Cc1cccc(CSc2nc3c(cc2C#N)CN(C)CC3)c1	inconclusive: 39.8 µM [inhibitor, single point]	
CC[n+]1c(SC)ccc2cc(OC)ccc21	inconclusive: 39.8 µM [inhibitor, single point]	
COc1ccc(N=Cc2c(O)n(CC3CCCO3)c(=O)[nH]c2=O)cc1 (stereo not given)	inconclusive: 11.2 µM [inhibitor, partial curve]	
CCOC(=O)N(c1ccccc1)P1(=S)OCC(C)O1 (stereo not given)		inactive: -16.9%
